Experimental data reported in the supplement of paper PMC11417369.
± gives the standard deviation of the averaged measurements. The list shows a part of the results.

system: PfAP2-G AP2 domain (GST-tagged); assay: gcPBM binding intensity (ln(normalized median fluorescence intensity)); higher = stronger DNA binding
Procedure, shortened: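 In this array assay, P. falciparum DNA-binding domains with a GST tag, expressed in E. coli, were applied for 1 h to primer-extended double-stranded 36-bp intergenic genomic probes and negative controls on an Agilent 4 × 180k array. Bound protein was visualised with Alexa488 anti-GST antibody at 488 nm. Binding intensity is the highest Masliner-normalised natural-log median intensity across replicate spots of either probe orientation.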

Sequence | gcPBM binding intensity (ln)
AAGTATTATTATAAGACACACATGTATATAAGTATA [CACACA_site1479] | 10.2 ± 0.16
TTAAGTATTTTACGTACACACTTATAAATGTACAGG [CACACA_site6012] | 11.7 ± 0.93
CTATTAAAAAAATTATGTACACAACGTCTCTATATA [XGTACX_site4813] | 11.6 ± 0.88
TACATTTTTATTTTTACACACATATATATATATATA [CACACA_site1021] | 10.2 ± 0.28
ATAAAAATGGATGAATATAAAAAAAAAAAAATATAT [CACACA_negctrl_site182] | 9.64 ± 0.071
GAATATATAAGAACAAATATGGCTTAGAAAAAAAAA [TGCATGCA_negctrl_site451] | 9.89 ± 0.071
TACAAAAGTTAAACATGTACTTAATTATATGTTTTT [XGTACX_site2852] | 11.1 ± 0.66
CTAAAAATTTTAATTGCACACCACGTTGGACTATTT [CACACA_site1489] | 10.7 ± 0.47
TTACACTAAATATGTTCACACATTTTTTCCATCATA [CACACA_site4647] | 10.06 ± 0.042
TATAAGGCAATAATAGTGCACTAAGATATATAATGA | 10.3 ± 0.24
ATATATTACAAATGGAGTACTAAAAATATTCTATAT [XGTACX_site6669] | 11.5 ± 0.87
TCAAGTTTATATTAACTATTTATGAAAAAAAAAAGA [CACACA_negctrl_site902] | 9.72 ± 0.21
CCCACAGACGGACACACACACACATATATATATATA [CACACA_site4352] | 11.6 ± 0.93
TATATATATGGGTTTACACACAATAATGAATTAAAA [CACACA_site915] | 9.99 ± 0.11
CCCATGCATTTTTGCACACACATATATTTATAAATA [CACACA_site6785] | 10.3 ± 0.3
TGCAAATTTAACAAAAAAAAAAAAAAAAAAAAAAAA [GTGCAC_negctrl_site64] | 9.47 ± 0.39
TCTACTACTTAATGGAGTACTAGCTTCATAATATTA [XGTACX_site7030] | 11.3 ± 0.98
TGAACACAGACAAATACACACAAAAAAAATAAATAA [CACACA_site4298] | 10.1 ± 0.14
TATTATGTATAAAGAAGTACTTTTTTTTTTTTTTTC [XGTACX_site201] | 11.3 ± 0.82

Sequence | gcPBM binding intensity (ln)
AAAAAACAAAAACACACACACACATATATATATATA [CACACA_site3654] | 9.93 ± 0.29
ATCACTAACATGTGTTGTACATAAAATTTGTTTGTT [XGTACX_site2207] | 11.4 ± 0.82
TTAACTTTTATATAGTGTACAAATAAATGCATACAG [XGTACX_site5958] | 11.1 ± 0.73
TTATTATTTAACATGTGGACACAAAAATTTAAGGGT [XGTACX_site4638] | 11.4 ± 0.82
ATGTTTTAATGAGGTTTGCACTATATTTTAATGAAC | 10.08 ± 0.014
AACATATATACAGTAACACACACAAAAAAATATGAA [CACACA_site9323] | 10.2 ± 0.21
GATTATTTAAAATATACATGCGCGCACATATGCATA [TGCATGCA_site630] | 10.5 ± 0.19
TGCATTTTCCTATTTGCATGCAATTAAAATATAGAA [TGCATGCA_site862] | 10 ± 0.32
AAAAGAATTTGAAGTCGTACAATATCTATTATATGA [XGTACX_site8275] | 11.2 ± 0.78
TTTTACAATAACAATACACACTATAATATATATATA [CACACA_site4893] | 10 ± 0.2
CATATATATAAATACACACACACACCCCTTATAATT [CACACA_site4064] | 10.5 ± 0.3
TAGGAGCCGAAACACACACACAAAAAAAAAAAAAAA [CACACA_site1731] | 9.82 ± 0.45
AAGATAAAATTATGCACACATACGAATAATTTTAAA [CACACA_site1705] | 10 ± 0.14
TTTCTCAATTCTTAGAGTACATAAATAAAAAAAAAA [XGTACX_site7639] | 11.4 ± 0.95
ATATAATATACTTATTGTACTTATTTAAAATACTAA [XGTACX_site4266] | 11.3 ± 1
AAAAAATGGCTAGTTTGTACACAAAAGTTATTGCAT [XGTACX_site5381] | 11.1 ± 0.67
AAAAAAAAATAAAAATGTACATATATAATATTATAT [XGTACX_site71] | 11.1 ± 0.56
TAATTCTTTATAATAACACACATTCATATACAATAA [CACACA_site2499] | 9.9 ± 0.042
GGTATTACCTGTTTGTTATGTAGATGTTGCTAGGAT [GTGCAC_negctrl_site736] | 10.02 ± 0.021

Sequence | gcPBM binding intensity (ln)
AAGAAAAACTAAAGAGTTCTGTTCATATCTCTTTGG [TGCATGCA_negctrl_site549] | 9.41 ± 0.4
ATACCAATAATATACATACACACATAAAGGTTTATA [CACACA_site314] | 9.955 ± 0.064
TATATCAAATTCTAAACATGCACAAAAAACTTATAA [TGCATGCA_site510] | 9.94 ± 0.057
AAGGAAAAACCATTCGCACACACACCGAATATATAA [CACACA_site8403] | 10.1 ± 0.14
TTTACATTTAATAAAAGTACTTATTTCATATACATA [XGTACX_site659] | 11.2 ± 0.57
ACTTAAATAATACATACACACATGTACATACAGAAA [CACACA_site1595] | 11.2 ± 0.62
TATTTATATAGACACACACACATATATTTATATTTT [CACACA_site7240] | 10.1 ± 0.11
ATTATATATATATATAGTACTTTTTTTTTTTTTTTT [XGTACX_site8801] | 11.4 ± 0.71
AAAAAAAATATATATATTAAAGTTTTAATTTTTATA [CACACA_negctrl_site497] | 9.47 ± 0.11
TTAGAATTTAGAGAAGTGCATATTAAGTTACGAATT [GTGCAC_site9861] | 10.06 ± 0.099
TTGCCTGACTTGTTCACACATATTTATGATATACAT [CACACA_site5783] | 10.06 ± 0.021
TTTTCTTGGTATATGATTTATCCTAAATAAGTAAAT [CACACA_negctrl_site294] | 9.89 ± 0.13
TTATTGGTTATATAAAGTACATTTGAAATATAATTG [XGTACX_site6553] | 11.1 ± 0.79
ATAATAATTTTATGCACACAGAAAAATACAAGGTTA [CACACA_site3510] | 10.3 ± 0.34
TGGGTGGTAAAAATGTGTACATAAAAAAATAATGTT [XGTACX_site2235] | 11.6 ± 0.95
TCTCACATTCTTATGGGTACACATGAGAAATTATAA [XGTACX_site6799] | 11.4 ± 0.93
ATATTATTATAAAGTGGTACAATAAATGGTATTATA [XGTACX_site391] | 11.5 ± 0.96
TGTATTATAATATTATGTACTTATAAATTTTATATT [XGTACX_site6432] | 11.3 ± 0.83
AATTTAAAGTTTTTTTTTTTTTTTTTTTTTTTTTTG [CACACA_negctrl_site1082] | 9.545 ± 0.078
